Data reported in patent US20250136696A1 (HARBOUR BIOMED SHANGHAI, published 2025).
Where two headings read alike, the source gives them in different places.

T1: human B7-H7 on the cell surface (human, UniProt Q9UM44 23-414)
T1 construct: whole, on cells; also called hB7-H7; hu B7-H7
T1 sequence (looked up): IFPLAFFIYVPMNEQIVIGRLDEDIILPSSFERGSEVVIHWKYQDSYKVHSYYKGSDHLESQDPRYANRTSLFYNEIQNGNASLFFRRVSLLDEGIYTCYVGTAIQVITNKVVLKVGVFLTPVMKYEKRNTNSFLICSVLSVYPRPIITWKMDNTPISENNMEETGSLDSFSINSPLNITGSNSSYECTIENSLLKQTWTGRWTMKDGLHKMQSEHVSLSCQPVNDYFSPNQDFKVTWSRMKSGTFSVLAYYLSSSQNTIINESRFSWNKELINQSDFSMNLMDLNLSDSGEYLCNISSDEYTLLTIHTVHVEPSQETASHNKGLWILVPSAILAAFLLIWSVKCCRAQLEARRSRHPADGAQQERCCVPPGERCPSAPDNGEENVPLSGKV

T2: biotinylated human B7-H7 protein (Acro Biosystems, B77-H82F5) (human, UniProt Q9UM44 23-344, biotinylated)
T2 construct: Bought soluble protein; also called biotin-B7H7 protein
T2 sequence (looked up): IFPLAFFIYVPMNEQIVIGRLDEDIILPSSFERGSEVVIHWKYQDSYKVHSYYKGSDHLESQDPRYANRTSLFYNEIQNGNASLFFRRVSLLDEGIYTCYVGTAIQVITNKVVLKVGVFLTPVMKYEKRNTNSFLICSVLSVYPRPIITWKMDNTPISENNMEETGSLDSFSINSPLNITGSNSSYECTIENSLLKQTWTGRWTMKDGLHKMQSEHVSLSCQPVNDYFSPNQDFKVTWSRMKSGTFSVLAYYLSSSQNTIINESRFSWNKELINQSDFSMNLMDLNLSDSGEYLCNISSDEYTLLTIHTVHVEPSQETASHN


Key:
[1] = target: T1, human B7-H7 on the cell surface; test: flow cytometry, LS180 cells
Method: (§1) This example was intended to study the in vitro activity of H2L2 monoclonal antibodies against human B7-H7 in binding to human/cynomolgus monkey B7-H7. Since homologous molecules of B7-H7 were not present in mice, the detection was not performed. […] The cells were adjusted to a cell density of 1×10⁶ cells/mL, respectively. The cells were seeded in a 96-well V-bottom plate (Corning, #3894) at 100 μL/well, and the antibody to be tested at 2× final concentration with 3-fold concentration gradient dilution was then added at 100 μL/well. The cells were incubated at 4° C. for 2 hours in the dark. After the incubation, the cells were rinsed twice by adding pre-chilled PBS containing 2% BSA at 100 μl/well, and centrifuged at 500 g at 4° C. for 5 minutes, and the supernatant was discarded. […] The cells were washed twice by adding pre-chilled PBS containing 2% BSA at 100 μL/well, and centrifuged at 500 g at 4° C. for 5 minutes, and the supernatant was discarded. Finally, the cells were resuspended in pre-chilled PBS containing 2% BSA at 200 μL/well, and the fluorescence signal values were read using an ACEA Novocyte3000 flow cytometer.

[2] = target: T1, human B7-H7 on the cell surface; test: flow cytometry, LS180 cells; remark: listed apart in the source
Method: as §1

[3] = target: T1, human B7-H7 on the cell surface; test: flow cytometry on HEK-293/hB7-H7 cells after 0-14 days in 90% human serum at 37 C
Method: The cells were adjusted to a cell density of 1×10⁶ cells/mL, respectively. The cells were seeded in a 96-well V-bottom plate (Corning, #3894) at 100 μL/well, and the antibody to be tested at 2× final concentration with 3-fold concentration gradient dilution was then added at 100 μL/well. The cells were incubated at 4° C. for 2 hours in the dark. After the incubation, the cells were rinsed twice by adding pre-chilled PBS containing 2% BSA at 100 μL/well, and centrifuged at 500 g at 4° C. for 5 minutes, and the supernatant was discarded. […] The cells were washed twice by adding pre-chilled PBS containing 2% BSA at 100 μL/well, and centrifuged at 500 g at 4° C. for 5 minutes, and the supernatant was discarded. Finally, the cells were resuspended in pre-chilled PBS containing 2% BSA at 200 μL/well, and the fluorescence signal values were read using an ACEA Novocyte3000 flow cytometer.

[4] = target: T2, biotinylated human B7-H7 protein (Acro …); test: flow cytometry, blocking of biotinylated human B7-H7 binding to CHO-K1/KIR3DL3 cells
Description: This example was intended to study the in vitro blocking activity of human anti-B7-H7 antibodies against the binding of human B7-H7 to its receptor KIR3DL3. A CHO-K1 cell (CHO-K1/KIR3DL3, Harbour BioMed US, Inc.) overexpressing human KIR3DL3 was used in experiments at the cellular level where human B7-H7/human KIR3DL3 binding was blocked. Briefly, the CHO-K1/KIR3DL3 cells were digested and resuspended in PBS containing 2% BSA. The cells were adjusted to a cell density of 1×10⁶ cells/mL. […] The cells were incubated at 4° C. for 1 hour in the dark. […] The cells were rinsed twice by adding pre-chilled PBS containing 2% BSA at 100 μL/well, and were centrifuged at 500 g at 4° C. for 5 minutes, and the supernatant was discarded. A fluorescent secondary antibody (PE Streptavidin, BD, Cat #: 554061, 1:200) was added at 100 μL/well, and the cells were incubated at 4° C. for 30 minutes in the dark. The cells were washed twice by adding pre-chilled PBS at 200 µL/well, and centrifuged at 500 g at 4° C. for 5 minutes, and the supernatant was discarded. Finally, the cells were resuspended in pre-chilled PBS at 200 μL/well, and the fluorescence signal values were read using an ACEA Novocyte3000 flow cytometer. IC50 was calculated.

Row | Binder | EC50 [1] [pM] | Maximum MFI [1] [MFI] | EC50 [2] [pM] | Maximum MFI [2] [MFI] | EC50 (read off the curve) [3] [pM] | IC50 [4] [pM] | Maximum inhibition rate (%) [4] [%]
1 | PR004261 (antibody, human IgG1, kappa, Variant of PR003249; Human IgG1 with LALA mutation in Fc) heavy: QVQLVESGGGVVQPGRSLRLSCAASGFTFSDYGIHWVRQAPGKGLEWVAVIWYDGSDKYYADSVRGRFTISRDNSKNTLSLQMNSLRVEDTAVYYCARDRSSGAMGYFVYWGQGTLVTVSSASTKGPSVFPLAPSSKSTSGGTAALGCLVKDYFPEPVTVSWNSGALTSGVHTFPAVLQSSGLYSLSSVVTVPSSSLGTQTYICNVNHKPSNTKVDKKV[not shown - human IgG1 Fc with changes] light: [not shown - about 100 residues][not shown - about 100 residues] | 34 | 26900 | 36 | 19700 | ~1000 | 6970 | 101
2 | PR004262 (antibody, human IgG1, kappa, Variant of PR003259; Human IgG1 with LALA mutation in Fc) heavy: QVQLVESGGGVVQPGRSLRLSCAASGFTFSNYGMHWVRQVPGKGLEWVAVIWYDGSEKDYADSVKGRFTISRDNSKNTLYLQMNSLRVEDTAVYYCAKDLISGIYYVDHWGQGTLVTVSSASTKGPSVFPLAPSSKSTSGGTAALGCLVKDYFPEPVTVSWNSGALTSGVHTFPAVLQSSGLYSLSSVVTVPSSSLGTQTYICNVNHKPSNTKVDKKV[not shown - human IgG1 Fc with changes] light: DIQMTQSPSSLSASVGDRVTITCRASQGISNYLAWYQQKPGKVPKLLIYAASTLQSGVPSRFSGSGSGTDFTLTISSLQPEDVATYYCQKYNSAPFTFGPGTKVDIKRTVAAPSVFIFPPSDEQLKSGTASVVCLLNNFYPREAKVQWKVDNALQSGNSQESVTEQDSKDSTYSLSSTLTLSKADYEKHKVYACEVTHQGLSSPVTKSFNRGEC | 33 | 25900 | 48 | 19200 | ~1000 | 6540 | 100
3 | PR003259 (antibody, human IgG1, kappa, Human IgG1; also called 68F3A2) heavy: QVQLVESGGGVVQPGRSLRLSCAASGFTFSNYGMHWVRQVPGKGLEWVAVIWYDGSEKDYADSVKGRFTISRDNSKNTLYLQMNSLRVEDTAVYYCAKDLISGIYYVDHWGQGTLVTVSS[not shown - human IgG1 constant region] light: DIQMTQSPSSLSASVGDRVTITCRASQGISNYLAWYQQKPGKVPKLLIYAASTLQSGVPSRFSGSGSGTDFTLTISSLQPEDVATYYCQKYNSAPFTFGPGTKVDIKRTVAAPSVFIFPPSDEQLKSGTASVVCLLNNFYPREAKVQWKVDNALQSGNSQESVTEQDSKDSTYSLSSTLTLSKADYEKHKVYACEVTHQGLSSPVTKSFNRGEC | – | – | 66 | 20300 | – | 7810 | 108
